Certain results were filed several times, with different values. This is not the full list of results. An entry can have further records. Results that share an entry are repeated measurements in other runs, samples, wells, individuals or studies.
Tests used:
Format in all cases: toxicity, cell-based
[1] = tested on: U2OS; assay: Multiplex assay against U2OS; conditions: human, 10 µM, compound concentration 10 uM
Outline: (§1)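 On a CQ1 microscope at 37°C and 5% CO2, live cells were imaged after compound addition. They had been stained at seeding with Hoechst33342, BioTracker Green Microtubule Cytoskeleton Dye, MitoTracker Red and Annexin V Alexa Fluor 680. CellPathfinder machine-learning gating assigned cells to Hoechst high-intensity objects or normal cells, normal cells to healthy, pyknosed or fragmented nuclei, and pyknosed cells to mitotic or apoptotic. Tubulin, mitochondrial-mass and membrane-permeability phenotypes are per cents of healthy-nucleus cells.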

[2] = tested on: Fibroblast; assay: Multiplex assay against human fibroblast; conditions: 10 µM, compound concentration 10 uM; outline: as §1
[3] = tested on: HEK-293T; assay: Multiplex assay against HEK293T; conditions: human, 10 µM, compound concentration 10 uM; outline: as §1;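 for Population Tubulin-Different-Phenotype (%): share of the cells with healthy nuclei that show this phenotype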

NC(=O)Nc1cc(-c2cccc(F)c2)sc1C(=O)N[C@H]1CCCNC1 [AZD-7762]
Population Mitochondria Different-Phenotype (%) ([1]; 12 h, replicate 2): 31% and 8%
Population Tubulin-Different-Phenotype (%) ([1]; 12 h, replicate 2): 21% and 4%
Population Fragmented Nuclei (%) ([1]; 24 h, replicate 1): 44% and 13%
Population Membrane Permeable-Phenotype (%) ([1]; 24 h, replicate 1): 15% and 92%
Population Tubulin-Different-Phenotype (%) ([1]; 24 h, replicate 1): 7% and 85%
Population Mitotic Cells (%) ([1]; 24 h, replicate 2): 7% and 29%
Population Tubulin-Different-Phenotype (%) ([2]; 12 h, replicate 1): 22% and 5%
Population Hoechst High Intensity Objects (%) ([2]; 12 h, replicate 2): 5% and 32%
Population Mitochondria Different-Phenotype (%) ([2]; 12 h, replicate 2): 31% and 0%
Population Pyknosed Nuclei (%) ([2]; 12 h, replicate 2): 52% and 12%
Population Membrane Permeable-Phenotype (%) ([2]; 24 h, replicate 1): 12% and 3%
Population Mitotic Cells (%) ([2]; 24 h, replicate 1): 62% and 17%
Population Tubulin-Different-Phenotype (%) ([2]; 24 h, replicate 1): 26% and 1%
Population Fragmented Nuclei (%) ([2]; 24 h, replicate 2): 59% and 16%
Population Mitochondria Different-Phenotype (%) ([2]; 24 h, replicate 2): 3% and 80%
Population Mitotic Cells (%) ([2]; 24 h, replicate 2): 42% and 7%
Population Tubulin-Different-Phenotype (%) ([2]; 24 h, replicate 2): 15% and 90%
Population Apoptotic (%) ([3]; 12 h, replicate 1): 74% and 21%
Population Healthy Nuclei (%) ([3]; 12 h, replicate 1): 12% and 54%
Population Mitochondria Different-Phenotype (%) ([3]; 12 h, replicate 1): 88% and 11%
Population Mitotic Cells (%) ([3]; 12 h, replicate 1): 25% and 78%
Population Tubulin-Different-Phenotype (%) ([3]; 12 h, replicate 1): 50% and 8%
Total Cell Count ([3]; 12 h, replicate 1): 177 and 740
Total Cell Count ([3]; 12 h, replicate 2): 179 and 1099
Population Healthy Nuclei (%) ([3]; 24 h, replicate 1): 40% and 7%
Population Mitochondria Different-Phenotype (%) ([3]; 24 h, replicate 1): 23% and 100%
Total Cell Count ([3]; 24 h, replicate 1): 701 and 184
Population Healthy Nuclei (%) ([3]; 24 h, replicate 2): 6% and 34%
Total Cell Count ([3]; 24 h, replicate 2): 175 and 1041

Cn1c(-c2csc(C3CCN(CC4=NC5N=CC=CC5N4)CC3)n2)nc2ccccc21 (stereo not given) [BAY-070]
Population Apoptotic (%) ([1]; 12 h, replicate 1): 8% and 29%
Population Apoptotic (%) ([1]; 12 h, replicate 2): 0% and 33%
Population Membrane Permeable-Phenotype (%) ([1]; 24 h, replicate 2): 16% and 5%
Population Tubulin-Different-Phenotype (%) ([2]; 12 h, replicate 1): 15% and 2%
Population Apoptotic (%) ([2]; 12 h, replicate 2): 16% and 80%
Population Mitochondria Different-Phenotype (%) ([2]; 12 h, replicate 2): 27% and 0%
Population Mitotic Cells (%) ([2]; 12 h, replicate 2): 83% and 20%
Population Tubulin-Different-Phenotype (%) ([2]; 12 h, replicate 2): 9% and 41%
Population Mitochondria Different-Phenotype (%) ([2]; 24 h, replicate 1): 8% and 1%
Population Tubulin-Different-Phenotype (%) ([2]; 24 h, replicate 1): 18% and 2%
Population Apoptotic (%) ([2]; 24 h, replicate 2): 0% and 57%
Population Mitochondria Different-Phenotype (%) ([2]; 24 h, replicate 2): 20% and 5%
Population Pyknosed Nuclei (%) ([3]; 12 h, replicate 2): 13% and 4%
Population Tubulin-Different-Phenotype (%) ([3]; 24 h, replicate 1): 19% and 6%
Population Pyknosed Nuclei (%) ([3]; 24 h, replicate 2): 2% and 7%
Population Tubulin-Different-Phenotype (%) ([3]; 24 h, replicate 2): 8% and 34%

CNCc1ccccc1-c1csc([C@H](C)Nc2nc(C)nc3cc(OC)c(OC)cc23)c1 [BAY-294]
Population Fragmented Nuclei (%) ([1]; 12 h, replicate 1): 27% and 8%
Population Healthy Nuclei (%) ([1]; 12 h, replicate 1): 10%, 31%, 73%
Population Pyknosed Nuclei (%) ([1]; 12 h, replicate 1): 62%, 52%, 17%
Population Fragmented Nuclei (%) ([1]; 12 h, replicate 2): 15%, 46%, 18%
Population Hoechst High Intensity Objects (%) ([1]; 12 h, replicate 2): 11% and 55%
Population Pyknosed Nuclei (%) ([1]; 12 h, replicate 2): 46%, 30%, 14%
Population Fragmented Nuclei (%) ([1]; 24 h, replicate 1): 38%, 20%, 11%
Population Healthy Nuclei (%) ([1]; 24 h, replicate 1): 3%, 9%, 60%
Population Hoechst High Intensity Objects (%) ([1]; 24 h, replicate 1): 5%, 13%, 3%
Population Healthy Nuclei (%) ([1]; 24 h, replicate 2): 14%, 47%, 20%
Population Hoechst High Intensity Objects (%) ([1]; 24 h, replicate 2): 17%, 7%, 54%
Population Healthy Nuclei (%) ([2]; 12 h, replicate 1): 48%, 16%, 9%
Population Hoechst High Intensity Objects (%) ([2]; 12 h, replicate 1): 29%, 6%, 15%
Population Mitochondria Different-Phenotype (%) ([2]; 12 h, replicate 1): 4% and 32%
Population Mitotic Cells (%) ([2]; 12 h, replicate 1): 56%, 43%, 17%
Population Healthy Nuclei (%) ([2]; 12 h, replicate 2): 14%, 43%, 23%
Population Membrane Permeable-Phenotype (%) ([2]; 12 h, replicate 2): 44%, 15%, 86%
Population Mitochondria Different-Phenotype (%) ([2]; 12 h, replicate 2): 33%, 25%, 93%
Population Healthy Nuclei (%) ([2]; 24 h, replicate 1): 49%, 7%, 21%
Population Membrane Permeable-Phenotype (%) ([2]; 24 h, replicate 1): 9%, 6%, 50%
Population Mitochondria Different-Phenotype (%) ([2]; 24 h, replicate 1): 5%, 25%, 50%
Population Mitotic Cells (%) ([2]; 24 h, replicate 1): 45% and 10%
Population Healthy Nuclei (%) ([2]; 24 h, replicate 2): 36%, 6%, 20%
Population Membrane Permeable-Phenotype (%) ([2]; 24 h, replicate 2): 8%, 33%, 85%
Population Mitochondria Different-Phenotype (%) ([2]; 24 h, replicate 2): 4%, 100%, 92%
Population Mitotic Cells (%) ([2]; 24 h, replicate 2): 68%, 6%, 21%
Population Tubulin-Different-Phenotype (%) ([2]; 24 h, replicate 2): 44%, 0%, 85%
Population Healthy Nuclei (%) ([3]; 12 h, replicate 1): 0%, 45%, 19%
Population Membrane Permeable-Phenotype (%) ([3]; 12 h, replicate 1): 0%, 28%, 13%
Population Mitochondria Different-Phenotype (%) ([3]; 12 h, replicate 1): 100%, 30%, 67%
Population Mitotic Cells (%) ([3]; 12 h, replicate 1): 16%, 70%, 57%
Population Apoptotic (%) ([3]; 12 h, replicate 2): 82% and 11%
Population Fragmented Nuclei (%) ([3]; 12 h, replicate 2): 1%, 5%, 4%
Population Healthy Nuclei (%) ([3]; 12 h, replicate 2): 40%, 9%, 73%
Population Hoechst High Intensity Objects (%) ([3]; 12 h, replicate 2): 11%, 4%, 3%
Population Membrane Permeable-Phenotype (%) ([3]; 12 h, replicate 2): 7%, 5%, 30%
Population Mitotic Cells (%) ([3]; 12 h, replicate 2): 17% and 88%
Population Pyknosed Nuclei (%) ([3]; 12 h, replicate 2): 57%, 84%, 21%
Population Healthy Nuclei (%) ([3]; 24 h, replicate 1): 0%, 14%, 60%
Population Membrane Permeable-Phenotype (%) ([3]; 24 h, replicate 1): 0%, 20%, 27%
Population Mitochondria Different-Phenotype (%) ([3]; 24 h, replicate 1): 100%, 54%, 29%
Population Tubulin-Different-Phenotype (%) ([3]; 24 h, replicate 1): 0%, 57%, 96%
Population Apoptotic (%) ([3]; 24 h, replicate 2): 53%, 95%, 16%
Population Healthy Nuclei (%) ([3]; 24 h, replicate 2): 23%, 7%, 82%
Population Hoechst High Intensity Objects (%) ([3]; 24 h, replicate 2): 12%, 7%, 3%
Population Mitochondria Different-Phenotype (%) ([3]; 24 h, replicate 2): 85%, 69%, 19%
Population Mitotic Cells (%) ([3]; 24 h, replicate 2): 46%, 4%, 83%
Population Pyknosed Nuclei (%) ([3]; 24 h, replicate 2): 67%, 86%, 5%

CN(C)c1ncnc(-c2ccc3nc(Nc4cc(CN5CCN(C(=O)CC(F)(F)F)CC5)ccn4)[nH]c3c2)c1Cl [BAY-440]
Population Membrane Permeable-Phenotype (%) ([1]; 12 h, replicate 1): 49% and 14%
Population Tubulin-Different-Phenotype (%) ([1]; 12 h, replicate 1): 92% and 11%
Population Apoptotic (%) ([1]; 12 h, replicate 2): 33% and 0%
Population Membrane Permeable-Phenotype (%) ([1]; 12 h, replicate 2): 46% and 15%
Population Tubulin-Different-Phenotype (%) ([1]; 12 h, replicate 2): 98% and 23%
Population Membrane Permeable-Phenotype (%) ([1]; 24 h, replicate 1): 37% and 7%
Population Mitochondria Different-Phenotype (%) ([1]; 24 h, replicate 1): 42% and 11%
Population Tubulin-Different-Phenotype (%) ([1]; 24 h, replicate 1): 87% and 15%
Population Apoptotic (%) ([1]; 24 h, replicate 2): 50% and 0%
Population Membrane Permeable-Phenotype (%) ([1]; 24 h, replicate 2): 38% and 11%
Population Tubulin-Different-Phenotype (%) ([1]; 24 h, replicate 2): 93% and 29%
Population Tubulin-Different-Phenotype (%) ([2]; 12 h, replicate 1): 58% and 9%
Population Mitotic Cells (%) ([2]; 12 h, replicate 2): 16% and 50%
Population Tubulin-Different-Phenotype (%) ([2]; 24 h, replicate 1): 66% and 7%
Population Mitochondria Different-Phenotype (%) ([2]; 24 h, replicate 2): 11% and 35%
Population Tubulin-Different-Phenotype (%) ([2]; 24 h, replicate 2): 16% and 85%
Population Healthy Nuclei (%) ([3]; 12 h, replicate 1): 20% and 62%
Population Membrane Permeable-Phenotype (%) ([3]; 12 h, replicate 1): 26% and 8%
Population Tubulin-Different-Phenotype (%) ([3]; 12 h, replicate 1): 58% and 12%
Population Mitochondria Different-Phenotype (%) ([3]; 12 h, replicate 2): 48% and 13%
Population Pyknosed Nuclei (%) ([3]; 12 h, replicate 2): 17% and 5%
Population Tubulin-Different-Phenotype (%) ([3]; 12 h, replicate 2): 97% and 25%
Population Apoptotic (%) ([3]; 24 h, replicate 1): 33% and 10%
Population Healthy Nuclei (%) ([3]; 24 h, replicate 1): 21% and 77%
Population Hoechst High Intensity Objects (%) ([3]; 24 h, replicate 1): 21% and 5%
Population Mitochondria Different-Phenotype (%) ([3]; 24 h, replicate 1): 43% and 5%
Population Pyknosed Nuclei (%) ([3]; 24 h, replicate 1): 48% and 12%
Population Fragmented Nuclei (%) ([3]; 24 h, replicate 2): 2% and 18%
Population Mitochondria Different-Phenotype (%) ([3]; 24 h, replicate 2): 62% and 3%
Population Pyknosed Nuclei (%) ([3]; 24 h, replicate 2): 20% and 2%
Population Tubulin-Different-Phenotype (%) ([3]; 24 h, replicate 2): 98% and 28%

COc1ccc(Oc2cc(NCCC(F)(F)F)c3ncc(-c4ccc(C(=O)NC5CC5)c(C)c4)n3n2)c(F)c1F [BAY-1217389]
Population Mitochondria Different-Phenotype (%) ([1]; 12 h, replicate 1): 22% and 73%
Population Mitochondria Different-Phenotype (%) ([1]; 12 h, replicate 2): 23% and 92%
Population Pyknosed Nuclei (%) ([1]; 12 h, replicate 2): 5% and 20%
Population Mitochondria Different-Phenotype (%) ([2]; 12 h, replicate 1): 22% and 4%
Population Mitochondria Different-Phenotype (%) ([2]; 24 h, replicate 1): 50% and 9%
Population Apoptotic (%) ([2]; 24 h, replicate 2): 67% and 11%
Total Cell Count ([2]; 24 h, replicate 2): 284 and 82
Population Mitochondria Different-Phenotype (%) ([3]; 12 h, replicate 1): 53% and 11%
Population Membrane Permeable-Phenotype (%) ([3]; 12 h, replicate 2): 16% and 4%
Population Mitochondria Different-Phenotype (%) ([3]; 12 h, replicate 2): 21% and 69%
Population Mitochondria Different-Phenotype (%) ([3]; 24 h, replicate 1): 63% and 10%
Population Pyknosed Nuclei (%) ([3]; 24 h, replicate 1): 28% and 9%
Population Apoptotic (%) ([3]; 24 h, replicate 2): 5% and 31%
Population Membrane Permeable-Phenotype (%) ([3]; 24 h, replicate 2): 26% and 6%
Population Mitochondria Different-Phenotype (%) ([3]; 24 h, replicate 2): 8% and 61%
Population Pyknosed Nuclei (%) ([3]; 24 h, replicate 2): 2% and 7%

Reference: ChEMBL document CHEMBL4689842, “EUbOPEN Chemogenomics Library wave 1” (2021)
